Assays:
[1] = biological target: T1, human CD5 (Arg25-Pro372)-His protein (Acro, Cat. No. CD5-H52H5) (human, UniProt P06127 25-372); assay: ELISA on hCD5-His, antibody 10 nM
T1 construct: range 25-372; also called human CD5-His; hCD5-His; not shown: His tag
T1 sequence (looked up): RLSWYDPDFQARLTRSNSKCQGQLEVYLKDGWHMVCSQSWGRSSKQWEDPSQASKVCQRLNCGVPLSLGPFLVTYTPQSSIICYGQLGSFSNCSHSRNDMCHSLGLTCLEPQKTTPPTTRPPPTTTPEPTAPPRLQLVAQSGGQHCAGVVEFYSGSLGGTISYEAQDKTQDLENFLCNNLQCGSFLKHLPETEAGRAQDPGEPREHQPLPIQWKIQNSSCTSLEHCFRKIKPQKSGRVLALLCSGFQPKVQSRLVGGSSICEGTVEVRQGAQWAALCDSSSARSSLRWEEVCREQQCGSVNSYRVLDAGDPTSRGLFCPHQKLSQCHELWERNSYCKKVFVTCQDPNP
Protocol: (§1) The binding activity of the H65 antibody prepared above with human CD5 protein was subjected to ELISA assay. A purchased commercial antigen (human CD5-His) was diluted with PBS to obtain a final concentration of 2 μg/mL, and then added to a 96-well ELISA plate with 100 µL/well. The plate was sealed with a plastic film and incubated at 4° C. over the night, washed twice with PBS in the next day, added with a blocking solution [PBS+2% (w/w) BSA] and blocked at room temperature for 2 h. The blocking solution was drained out, and 100 nM of the H65 antibody or negative control antibody hIgG1 after gradient dilution was added, namely, the obtained product was the antibody Anti-HEL-hIgG1 against hen egg lysozyme (purchased from Biointron, Cat. No. B117901) with 50 μl per well. After incubation for 2 h at 37° C., the plate was washed for 3 times with PBS. A secondary antibody labeled with HRP (horseradish peroxidase) (A0170, purchased from Sigma) was added. After incubation for 2 h at 37° C., the plate was washed for 5 times with PBS. A TMB substrate was added with 50 μL/well and incubated at room temperature for 30 min, then a stop solution (1.0 N HCl) was added with 50 μL/well.
(§2) To assay the binding activity of VHH-hFc to human CD5 protein, ELISA assay was performed according to the method described in Example 2.2. […] IgG control is hIgG1, and data in the table are values of OD_{450 nm}.

[2] = biological target: T1, human CD5 (Arg25-Pro372)-His protein …; assay: ELISA on hCD5-His, antibody 0.01 nM
Protocol: as §1, §2

[3] = biological target: T1, human CD5 (Arg25-Pro372)-His protein …; assay: SPR (Biacore), antibody captured on Protein A chip, hCD5-His in solution, 1:1 model
Protocol: The anti-human CD5 VHH-hFc was captured using a Protein A chip (GE Healthcare; 29-127-558). The sample and running buffer were HBS-EP+ (10 mM HEPES, 150 mM NaCl, 3 mM EDTA, 0.05% surfactant P20) (GE Healthcare; BR-1006-69). The flow cell was set at 25° C. The sample block was set at 16° C. Both were pretreated with the running buffer. In each cycle, first, the test antibody was captured using the Protein A chip, and then a single concentration of CD5 antigen protein was injected. The association and dissociation processes of the antibody with the antigen protein were recorded, and finally, the chip was regenerated using Glycine pH 1.5 (GE Healthcare; BR-1003-54). The association was determined by injecting different concentrations of recombinant human CD5-His in the solution and maintaining for 240 s, wherein the flow rate was 30 μL/min, and the protein was diluted in a 1:1 dilution ratio from 200 nM (see detailed results for actual concentrations tested) to obtain 5 concentrations in total. The dissociation phase was monitored for up to 600 s and triggered by switching from the sample solution to the running buffer. The surface was regenerated by washing with 10 mM glycine solution (pH 1.5) at a flow rate of 30 μL/min for 30 s. The difference in bulk refractive index was corrected by subtracting the responses obtained from the goat anti-human Fc surface, and blank injections were also subtracted (=double referencing). To calculate the apparent KD and other kinetic parameters, the Langmuir 1:1 model was used. The association rate (Kon), dissociation rate (Koff), and binding affinity (KD) of the VHH-hFc with the hCD5-His protein are shown in Table 12, in which the antibody H65 is used as a control.

[4] = biological target: T1, human CD5 (Arg25-Pro372)-His protein …; assay: ELISA on hCD5-His, antibody 0.1 nM
Protocol: as §1, §2

[5] = biological target: T1, human CD5 (Arg25-Pro372)-His protein …; assay: ELISA, antibody coated at 2 µg/mL, human CD5-his titrated from 30 µg/mL; the EC80 is a concentration of CD5-his
Protocol: VHH-hFc was subjected to epitope classification with competitive ELISA. ELISA plates were coated with 2 μg/mL antibodies according to the method described in Example 4.1; the human CD5-his protein was subjected to a gradient dilution from 30 μg/mL, and EC₈₀ values (Table 13) were calculated and applied to the next step of epitope analysis. ELISA plates were coated with 2 μg/mL antibodies; after 25 μg/mL of antibodies to be tested were added, a hCD5-his protein having a EC₈₀ concentration corresponding to each of the antibodies to be tested was then added for incubation for 2 h; the plates were washed for 5 times with PBS and HRP-labeled anti-His antibodies (GenScript, Cat. No. A00612) were added for assay. The coated antibody may bind to the antibody-to be tested-hCD5-his antigen complex in the solution if no competitive relation exists between the coated antibody and the antibody-to be tested in the solution. Moreover, OD_{450 nm} absorbance was detected and an inhibition ratio between each pair of antibodies was calculated according to the OD_{450 nm} absorbance (FIGS. 13A-3B).

[6] = biological target: T1, human CD5 (Arg25-Pro372)-His protein …; assay: ELISA on hCD5-His, antibody 0.001 nM
Protocol: as §1, §2

[7] = biological target: T1, human CD5 (Arg25-Pro372)-His protein …; assay: ELISA on hCD5-His, antibody 0.0001 nM
Protocol: as §1, §2

Row | Binder | OD450 [1] [OD450] | OD450 [2] [OD450] | Kd [3] [nM] | koff [3] [s⁻¹] | kon [3] [M⁻¹ s⁻¹] | OD450 [4] [OD450] | EC80 [5] [µg/mL] | OD450 [6] [OD450] | OD450 [7] [OD450]
1 | S005-NB144-6 VHH-hFc (Fc fusion, VHH fused to human IgG1 Fc; no linker stated) QVQLVESGGGLVQAGGSLRLSCAASGSIFSISVMGWYRQAPGKERETVAVISSGGSTYYADSVKGRFTISRDNAKNTLYLQMNSLKPEDTAVYYCNADFETASGSPLYESWGQGTQVTVSS[human IgG1 Fc with changes not printed] | 2.28 | 0.26 | 42.6 | 0.0287 | 674000 | 0.9 | 1.59 | 0.14 | 0.11
2 | S005-NB144-7 VHH-hFc (Fc fusion, VHH fused to human IgG1 Fc; no linker stated) EVQVVESGGGLVQAGGSLRLSCAASGSIFSINLLGWYRQAPGKERESVAILSSGGSTYYADSVKGRFTISRDNVKNMLYLQMNSLKPEDTAVYYCNAVGGIATLRDYWGQGTQVTVSS[human IgG1 Fc with changes not printed] | 1.89 | 0.88 | 149 | 0.00068 | 4570 | 1.17 | 0.67 | 0.71 | 0.59
3 | S005-NB144-31 VHH-hFc (Fc fusion, VHH fused to human IgG1 Fc; no linker stated; also called S002-NB144-31) EVQVVESGGGLVQPGGSLRLSCAASGFTLDYYAIGWFRQAPGKEREGLSCISTSGGSTNYADSVKGRFTISRDNAKNTVYLQMNSLKPEDTAVYYCAASSFWDCAVVGTGSPKTGHLESVFGSWGQGTQVTVSS[human IgG1 Fc with changes not printed] | 2.07 | 0.39 | 23.4 | 0.000961 | 41100 | 1.02 | 0.11 | 0.21 | 0.16
